Source: publication PMC11995724, “Antibiotic target discovery by integrated phenotypic and activity-based profiling of electrophilic fragments” (Cell chemical biology, 2025)
Among all 3,200 compounds or so, about 75 (2%) showed an effect of 50% or more. Some of the results follow.

test system: T1, S. aureus MSSA476; design: species or system S. aureus MSSA476 (TSB) or V. cholerae SAD30 (LB); 384-well bacterial growth screen at 25 uM, OD600 relative to DMSO control; settings: relative growth, OD600, TSB; 25 µM; inhibitor
T1 construct: MSSA476

**Q.** With C=CC(=O)Nc1cc(S(=O)(=O)N(C)C)cc(C)c1C [1-K11, N-[5-(dimethylsulfamoyl)-2,3-dimethylphenyl]prop-2-enamide] as the molecule, how does the “% of control remaining” value read?
**A.** 124.835%

**Q.** With N#CC(=Cc1cccc(O)c1)C(=O)NCc1ccc(Cl)cc1 [8-P14, N-[(4-chlorophenyl)methyl]-2-cyano-3-(3-hydroxyphenyl)prop-2-enamide] as the molecule, how does the “% of control remaining” value read?
**A.** 115.187%

**Q.** With CC(Cl)C(=O)Nc1sc(-c2ccccc2)cc1C(N)=O (centres unmarked) [4-H13, 2-(2-chloropropanamido)-5-phenylthiophene-3-carboxamide] as the molecule, how does the “% of control remaining” value read?
**A.** 58.3135%

**Q.** With COc1ccc(C(=O)CCl)c2c1C(=O)CO2 [10-N05, 7-(2-chloroacetyl)-4-methoxy-2,3-dihydro-1-benzofuran-3-one] as the molecule, how does the “% of control remaining” value read?
**A.** 95.3125%

**Q.** With O=C(CCl)NCC1CCCCC1 [5-J06, 2-chloro-N-(cyclohexylmethyl)acetamide] as the molecule, how does the “% of control remaining” value read?
**A.** 99.4536%

**Q.** How did the “% of control remaining” value turn out when CS(=O)(=O)Nc1ccc(C(=O)CCl)cc1 [10-D19, N-[4-(2-chloroacetyl)phenyl]methanesulfonamide] was run?
**A.** 28.125%

**Q.** With C=CCNC(=O)C(C#N)=Cc1cccc(C)c1 [8-D05, 2-cyano-3-(3-methylphenyl)-N-(prop-2-en-1-yl)prop-2-enamide] as the molecule, how does the “% of control remaining” value read?
**A.** 115.519%

**Q.** With C=CC(=O)N1CCC(C(=O)N[C@H]2CC[C@@H](S(C)(=O)=O)CC2)CC1 [2-J08, 1-(prop-2-enoyl)-N-[(1s,4s)-4-methanesulfonylcyclohexyl]piperidine-4-carboxamide] as the molecule, how does the “% of control remaining” value read?
**A.** 108.964%

**Q.** How did the “% of control remaining” value turn out when O=C(CCl)NC1CCCN(Cc2ccccc2)C1=O (centres unmarked) [7-J10, N-(1-benzyl-2-oxopiperidin-3-yl)-2-chloroacetamide] was run?
**A.** 84.7724%

**Q.** For C=CC(=O)N1CCC[C@H]1c1ccon1 [2-G03, 1-[(2S)-2-(1,2-oxazol-3-yl)pyrrolidin-1-yl]prop-2-en-1-one], which “% of control remaining” value is on record?
**A.** 111.749%

**Q.** For C=CCNC(=O)C(C#N)=Cc1ccccc1[N+](=O)[O-] [8-E09, 2-cyano-3-(2-nitrophenyl)-N-(prop-2-en-1-yl)prop-2-enamide], which “% of control remaining” value is on record?
**A.** 109.876%

**Q.** For O=C(CCl)NCc1ccnn1C1CCCC1 [7-H08, 2-chloro-N-[(1-cyclopentyl-1H-pyrazol-5-yl)methyl]acetamide], which “% of control remaining” value is on record?
**A.** 84.4584%

**Q.** CCN(Cc1ccc(Cl)s1)C(=O)CCl [6-M11, 2-chloro-N-[(5-chlorothiophen-2-yl)methyl]-N-ethylacetamide] was tested. Which “% of control remaining” value did it give?
**A.** 94.5854%

**Q.** For CC(=O)NCCc1ccc(C(=O)CCl)s1 [10-P03, N-{2-[5-(2-chloroacetyl)thiophen-2-yl]ethyl}acetamide], which “% of control remaining” value is on record?
**A.** 143.125%

**Q.** With CC(CO)N(Cc1ccccc1Cl)C(=O)CCl (centres unmarked) [6-D17, 2-chloro-N-[(2-chlorophenyl)methyl]-N-(1-hydroxypropan-2-yl)acetamide] as the molecule, how does the “% of control remaining” value read?
**A.** 123.268%

**Q.** With CC(Cl)C(=O)NC(C)c1ccn(C)n1 (centres unmarked) [6-B16, 2-chloro-N-[1-(1-methyl-1H-pyrazol-3-yl)ethyl]propanamide] as the molecule, how does the “% of control remaining” value read?
**A.** 103.805%

**Q.** For C=CC(=O)NCC(=O)c1scc(C)c1Cl [1-D16, N-[2-(3-chloro-4-methylthiophen-2-yl)-2-oxoethyl]prop-2-enamide], which “% of control remaining” value is on record?
**A.** 113.231%

**Q.** How did the “% of control remaining” value turn out when COc1cc(C=C(C#N)C(=O)Nc2cccc(Cl)c2)cc(O)c1O [9-G20, N-(3-chlorophenyl)-2-cyano-3-(3,4-dihydroxy-5-methoxyphenyl)prop-2-enamide] was run?
**A.** 81.1985%

**Q.** How did the “% of control remaining” value turn out when Cc1ccc(NC(=O)C(C#N)=CC2=Cc3ccccc3OC2)cc1 [9-B19, 3-(2H-chromen-3-yl)-2-cyano-N-(4-methylphenyl)prop-2-enamide] was run?
**A.** 88.3895%

**Q.** Which “% of control remaining” value does the source give for C=CC(=O)Nc1ccccc1Sc1nncs1 [1-G04, N-[2-(1,3,4-thiadiazol-2-ylsulfanyl)phenyl]prop-2-enamide] here?
**A.** 98.1099%

**Q.** With CCc1ccc(C(=O)CCl)cc1 [10-F18, 2-chloro-1-(4-ethylphenyl)ethan-1-one] as the molecule, how does the “% of control remaining” value read?
**A.** 102.188%

**Q.** C=CC(=O)N1CCC(C(=O)NC2CC2(C)C)CC1 (centres unmarked) [3-C07, N-(2,2-dimethylcyclopropyl)-1-(prop-2-enoyl)piperidine-4-carboxamide] was tested. Which “% of control remaining” value did it give?
**A.** 92.2943%

**Q.** Which “% of control remaining” value does the source give for CCCC(=O)Nc1ccc(C(=O)C(C)Cl)cc1 (centres unmarked) [10-O06, N-[4-(2-chloropropanoyl)phenyl]butanamide] here?
**A.** 121.875%

**Q.** With CC(Cl)C(=O)N1CCCC1CC(=O)c1cnn(C)c1 (centres unmarked) [6-D16, 2-chloro-1-{2-[2-(1-methyl-1H-pyrazol-4-yl)-2-oxoethyl]pyrrolidin-1-yl}propan-1-one] as the molecule, how does the “% of control remaining” value read?
**A.** 98.6829%

**Q.** With O=C(CCl)NC1CCS(=O)(=O)CC1 [6-M08, 2-chloro-N-(1,1-dioxo-1lambda6-thian-4-yl)acetamide] as the molecule, how does the “% of control remaining” value read?
**A.** 112%

**Q.** Which “% of control remaining” value does the source give for COc1ccc(N(C(=O)CCl)C2CCS(=O)(=O)C2)cc1 (centres unmarked) [5-I20, 2-chloro-N-(1,1-dioxo-1lambda6-thiolan-3-yl)-N-(4-methoxyphenyl)acetamide] here?
**A.** 89.2532%

**Q.** Which “% of control remaining” value does the source give for CC(Cl)C(=O)N(Cc1ccccc1)C1C=CS(=O)(=O)C1 (centres unmarked) [6-D22, N-benzyl-2-chloro-N-(1,1-dioxo-2,3-dihydro-1lambda6-thiophen-3-yl)propanamide] here?
**A.** 108.244%

**Q.** O=C(CCl)Nc1cccc(OCc2ccccc2)c1 [5-I04, N-[3-(benzyloxy)phenyl]-2-chloroacetamide] was tested. Which “% of control remaining” value did it give?
**A.** 56.4663%

**Q.** With C=CC(=O)NC(C)Cn1nc(C)cc1C (centres unmarked) [1-F10, N-[1-(3,5-dimethyl-1H-pyrazol-1-yl)propan-2-yl]prop-2-enamide] as the molecule, how does the “% of control remaining” value read?
**A.** 100.923%

**Q.** With N#CC(=Cc1cnn(Cc2ccccc2)c1)C(=O)NC1CCCC1 [9-O14, 3-(1-benzyl-1H-pyrazol-4-yl)-2-cyano-N-cyclopentylprop-2-enamide] as the molecule, how does the “% of control remaining” value read?
**A.** 93.4831%

**Q.** For C=CC(NC(=O)CCl)C1CCOCC1 (centres unmarked) [5-N13, 2-chloro-N-[1-(oxan-4-yl)prop-2-en-1-yl]acetamide], which “% of control remaining” value is on record?
**A.** 105.647%

**Q.** Cc1cc(C)c(C(=O)CCl)c(C)c1 [10-C08, 2-chloro-1-(2,4,6-trimethylphenyl)ethan-1-one] was tested. Which “% of control remaining” value did it give?
**A.** 115.625%

**Q.** For CC(C)(C)c1ccc(C=C(C#N)C(=O)NCc2ccco2)cc1 [8-L14, 3-(4-tert-butylphenyl)-2-cyano-N-[(furan-2-yl)methyl]prop-2-enamide], which “% of control remaining” value is on record?
**A.** 93.61%

**Q.** How did the “% of control remaining” value turn out when CN(C)S(=O)(=O)c1cccc(NC(=O)CCl)c1 [4-J08, 2-chloro-N-[3-(dimethylsulfamoyl)phenyl]acetamide] was run?
**A.** 96.4269%

**Q.** With C=CC(=O)N(C)Cc1conc1CC [2-O15, N-[(3-ethyl-1,2-oxazol-4-yl)methyl]-N-methylprop-2-enamide] as the molecule, how does the “% of control remaining” value read?
**A.** 90.8616%

**Q.** With CC(NC(=O)CCl)c1nnc(-c2cccc(F)c2)s1 (centres unmarked) [5-F13, 2-chloro-N-{1-[5-(3-fluorophenyl)-1,3,4-thiadiazol-2-yl]ethyl}acetamide] as the molecule, how does the “% of control remaining” value read?
**A.** 114.754%

**Q.** For O=C(CCl)NCc1ccc(NC(=O)C2CC2)cc1 [6-E20, N-{4-[(2-chloroacetamido)methyl]phenyl}cyclopropanecarboxamide], which “% of control remaining” value is on record?
**A.** 109.951%

**Q.** O=C(CCl)Nc1cc(Cl)ccc1Oc1ccccc1 [5-G19, 2-chloro-N-(5-chloro-2-phenoxyphenyl)acetamide] was tested. Which “% of control remaining” value did it give?
**A.** 67.031%

**Q.** Which “% of control remaining” value does the source give for C=CC(=O)NCCn1cnc2ccsc2c1=O [2-N15, N-(2-{4-oxo-3H,4H-thieno[3,2-d]pyrimidin-3-yl}ethyl)prop-2-enamide] here?
**A.** 127.763%

**Q.** How did the “% of control remaining” value turn out when Cc1ccccc1NC(=O)C(C#N)=Cc1ccc(N2CCCCC2)cc1 [9-E21, 2-cyano-N-(2-methylphenyl)-3-[4-(piperidin-1-yl)phenyl]prop-2-enamide] was run?
**A.** 111.161%

**Q.** With CCOc1ccccc1NC(=O)C(C#N)=Cc1c(C)[nH]c2ccccc12 [9-A06, 2-cyano-N-(2-ethoxyphenyl)-3-(2-methyl-1H-indol-3-yl)prop-2-enamide] as the molecule, how does the “% of control remaining” value read?
**A.** 85.3933%

**Q.** With CCOc1ccccc1NC(=O)C(C#N)=Cc1ccc2c(c1)OCO2 [9-P05, 3-(1,3-dioxaindan-5-yl)-2-cyano-N-(2-ethoxyphenyl)prop-2-enamide] as the molecule, how does the “% of control remaining” value read?
**A.** 90.1873%

**Q.** With COc1ccc(Cl)cc1N1C(=O)C=CC1=O [10-K10, 1-(5-chloro-2-methoxyphenyl)-2,5-dihydro-1H-pyrrole-2,5-dione] as the molecule, how does the “% of control remaining” value read?
**A.** 104.375%

**Q.** How did the “% of control remaining” value turn out when C=CC(=O)NCc1ccc(C(=O)N2CCC(c3ccn[nH]3)CC2)cc1 [3-K08, N-({4-[4-(1H-pyrazol-5-yl)piperidine-1-carbonyl]phenyl}methyl)prop-2-enamide] was run?
**A.** 99.6082%

**Q.** For C=CC(=O)N(Cc1nonc1C)CC1C(C)=CCCC1C (centres unmarked) [1-F15, N-[(2,6-dimethylcyclohex-2-en-1-yl)methyl]-N-[(4-methyl-1,2,5-oxadiazol-3-yl)methyl]prop-2-enamide], which “% of control remaining” value is on record?
**A.** 96.7033%

**Q.** CCOC(=O)c1c(C)[nH]c(C(=O)C(C)Cl)c1C (centres unmarked) [10-B22, ethyl 5-(2-chloropropanoyl)-2,4-dimethyl-1H-pyrrole-3-carboxylate] was tested. Which “% of control remaining” value did it give?
**A.** 130%

**Q.** COc1cc(Cl)c(C)cc1NC(=O)C(C)Cl (centres unmarked) [6-C15, 2-chloro-N-(4-chloro-2-methoxy-5-methylphenyl)propanamide] was tested. Which “% of control remaining” value did it give?
**A.** 100.732%
